# Assay results: PubChem BioAssay (NCI)
# A structure can be active in one record and inactive in another.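 Step 1: grow cells in 96-well plates. Step 2: add test compound at a single concentration. Step 3: incubate 48 h. Step 4: record percent growth.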 Certain results were filed several times, with different values. The list is limited to them. An entry can have further records. For part of these data: The screen tested this drug many times, at the concentration stated with the values; each value is one run. Brackets with × count equal records among those shown. Entries with a single value are a further part of the results. The source made the active and inactive calls. How the source made its calls: active means growth percent below 10; inactive means the rest.
# Experiments:
# RXF 393 renal = assay: NCI-60 one-dose screen, 48 h (100 = growth as untreated, 0 = no growth, -100 = all killed); settings: 25 µM
# SF-268 CNS = assay: as above; settings: 0.25 µM
smiles,measurement,setting,value
COc1cccc2c1C(=O)c1c(O)c3c(c(O)c1C2=O)C[C@@](O)(C(=O)CO)C[C@@H]3OC1CC(N)C(O)C(C)O1 (stereo not given in full),growth,RXF 393 renal; runs of 1998,"active: -83, -67.5, -86.1, -75.3, -63.5, -71.4, -70.2 (2×), -64.1, -73, -76.8, -87.3, -70.8, -91.2, -82.7, -84.8, -64.9, -60.4, -73.8, -87%"
same,growth,RXF 393 renal; runs of 1999,"active: -89.6, -69.6, -80.3, -85.4, -86.7, -81.1, -95.5, -72.9, -87.7, -72.4, -93.7, -93.6, 2.84, -29.6, -76.9, -100, -79.4, -87.1%"
same,growth,RXF 393 renal; runs of 2000,"active: -36.3, -100, -18.5, -66.6%"
same,growth,SF-268 CNS; runs of 2006,inactive: 28.9%
same,growth,SF-268 CNS; runs of 2007,"inactive: 34.9, 25, 10.7, 29.1, 23.6, 32.5, 30.4, 38.5, 33.8 (2×), 27.5, 26.8, 27.3, 39, 15, 14.8, 27.9, 26.3, 29.7, 15.6, 33.4, 24.7, 37.1, 46.4, 30.9, 39.4, 33.7, 27.2, 25.6, 21.2, 32.1, 30.2, 35.1, 43.9, 48.6, 21.7, 27.6, 23.3, 31.7, 32.6, 29.8, 36.9, 34.7% and active: 9.82%"
same,growth,SF-268 CNS; runs of 2008,"inactive: 31.5, 24.4 (2×), 27.6, 28.4 (2×), 31.7, 37.7, 26.2 (3×), 33.8, 36.7, 39, 35.4, 33.9, 29.4, 16.8, 37.9, 30.6, 29, 12.8, 21, 23.5, 27.9, 15, 18.2, 96.5, 36.8, 20, 23.7, 28.9, 12.5, 18.8, 19.3, 18.4, 18, 18.7, 18.5, 35.1, 34.5, 31.8, 40.3, 34, 41.6, 25.6, 26, 25.1, 37.6, 22.2, 26.7% and active: -8.76%, 0.96%, 9.88%"
same,growth,SF-268 CNS; runs of 2009,"inactive: 25.5, 24.6, 24.8 (2×), 29, 27.9, 25.4, 28.8, 31.4, 27.8 (2×), 35.8, 33.2 (3×), 27.7, 23.8, 30, 28.3, 35.9, 32.1 (2×), 33.5, 27.5, 20.1, 28.6 (2×), 23.7, 24.3, 26.7 (2×), 23.9, 42.9, 19.8, 11.2, 19, 18.1, 34.5, 29.6, 12.2, 14.9, 42.4, 36.6, 34.7, 27, 30.8, 21.5, 35.6, 55.4, 19.1, 41.8, 39.8, 54, 34.4, 36.7, 34, 34.3, 36.8, 37.3% and active: 8.68%, 5.96%"
same,growth,SF-268 CNS; runs of 2010,"inactive: 45.1, 39.7, 27.8, 37 (2×), 30.3, 33.4 (2×), 43.4, 45, 43.6, 42.2, 32.5, 30.6 (2×), 32.2, 32.3 (2×), 40.3, 18.5, 30 (2×), 36.1, 23.9 (2×), 36.9, 27, 36, 30.9, 28.6, 28.1, 31.3, 20.6, 39.1, 23.8, 33.7, 25, 34.8, 23.2, 35.7, 29.7, 30.8, 35.2, 39.6, 33.5, 29.6, 32.9, 38.7, 34.3%"
same,growth,SF-268 CNS; runs of 2011,"inactive: 30.3, 30.6, 32.6, 33.2 (3×), 40.3, 37.6 (3×), 35.4 (3×), 28.4 (2×), 33.7, 29.7, 33.6, 35.5, 34.8, 28.8, 40, 41.2, 39.6, 38.8, 35.9, 38.5, 41.9, 35.7, 36.8 (2×), 46.6, 35.8 (2×), 30, 37.5, 33.4, 34.9, 33.5, 32, 27.8, 36, 31.8, 33.3 (2×), 32.2, 30.5, 22.7, 42.5, 27.2, 42.2, 42, 35.1, 40.6, 41.5%"
same,growth,SF-268 CNS; runs of 2012,"inactive: 39.8 (2×), 33.2 (2×), 28.1, 34.9, 30.4 (2×), 43.4, 45.5, 31.5, 35.5 (2×), 36.4, 27.9, 30.9, 30.6, 29.6, 32 (2×), 26.5, 29.8, 34.5, 37.5, 38.7, 35.6 (2×), 36.8, 39.4, 38.9, 33.4, 37.9, 37.8 (2×), 48.1, 35.4, 21.6, 42.3, 20.9, 32.3, 28.6, 36.6 (2×), 38.2, 45.6, 42.5, 46.4, 51.6, 44, 43.3, 45.3, 55.5, 47.9, 51.9, 49.7, 31, 37.4, 31.4 (3×), 29.5, 22.7, 36.9 (2×), 25.6, 27.3, 24%"
same,growth,SF-268 CNS; runs of 2013,"inactive: 33.1 (2×), 25.4 (2×), 32 (2×), 37.5, 33.4 (3×), 34.7 (3×), 35.7 (2×), 28.3 (2×), 42.2, 36.4, 35.2, 33.7, 27 (2×), 34.5, 25.3, 33.8, 39, 33.9, 23.9, 34.6 (2×), 23.1, 36 (2×), 26.1, 41.6, 35.9, 27.7, 41.7, 38.5 (2×), 29.6 (2×), 35.5, 42.9, 36.3, 34.2, 43, 36.8, 31.8 (2×), 35.1 (2×), 28.8, 41.4, 30.3, 24.8, 37.3, 29.7 (2×), 37, 30.9, 38.8 (2×), 42.5, 28.9 (2×), 23.2, 15.5, 22.7, 28.6, 32.9, 26.2, 28.1, 38.3%"
same,growth,SF-268 CNS; runs of 2014,"inactive: 33 (2×), 32 (2×), 31.2, 28.7 (2×), 29.6 (2×), 20.8, 30.3, 27.2, 24.1, 28.4, 31 (4×), 32.5, 41.2 (2×), 26.8 (2×), 19.2, 36.7, 32.7 (2×), 32.2 (2×), 38.8, 36.1 (2×), 41 (2×), 46.4, 37.1, 36.6, 36.9 (2×), 37.7, 34.6, 33.5, 34.2, 37.3 (3×), 36, 34.8, 28.6, 28.1 (2×), 28.3, 30.6, 28.9, 27.7, 32.1, 31.5, 29.7, 29.8, 27.6, 30.7, 26.3, 37.4, 27.5, 28.8, 38.5, 34.4, 36.4 (2×), 32.6, 31.7, 29.4, 30.9%"
same,growth,SF-268 CNS; runs of 2015,"inactive: 33.6, 32.1 (2×), 26.8 (2×), 31.2 (3×), 27.3, 33.4 (2×), 34.9, 37.1 (2×), 35.6, 36.8, 35.2, 38.5, 41.6, 30.6 (2×), 27.6 (2×), 26.4, 27.5, 30.8, 36.6 (2×), 46.5, 32.5 (3×), 28.6 (2×), 32, 30, 30.9, 28.3, 32.9, 37.7, 35.7, 32.7 (2×), 34.6 (2×), 31.3, 28.9, 26.3, 28.4, 22.5, 26.1, 41.9, 30.3, 29.1, 31.8, 39.1, 39.4, 38.8, 40.1, 39.5, 36.1 (2×), 40.7, 44, 33, 30.7, 35.9, 32.6, 33.1, 33.3, 38.6, 42.5%"
same,growth,SF-268 CNS; runs of 2016,"inactive: 33.3 (3×), 33.5, 32.3 (4×), 40.8 (2×), 34.9 (2×), 32.9, 33.4, 30.8, 36.1, 36.5, 26.2, 30.4 (2×), 28.4 (2×), 25.3, 23.4, 30.9, 35.9 (2×), 32, 24.1, 32.7, 27.2, 29.1 (2×), 29, 29.4, 31.8, 36.4 (2×), 34, 40.3, 34.5, 39.5 (2×), 33.2, 34.2, 37.1, 42, 41.1 (2×), 37.6, 31.4, 38.8, 43.2, 41, 39.8, 40.7, 37.4, 38.9 (4×), 44.9, 34.7, 41.4, 37.5, 43.5, 55.5, 55.2, 45.6, 44.4, 49.1, 45.5, 45, 38.3, 36, 33.1, 40.1, 37.9, 42.9, 43, 39.6%"
same,growth,SF-268 CNS; runs of 2017,"inactive: 37.4, 36.6, 38.3, 31, 29.4, 27.2 (2×), 33.4, 32.9, 24.8 (2×), 26.2, 24.6, 24.7, 26.3 (2×), 29.1 (2×), 32.2, 33.8, 27.9 (2×), 30 (3×), 28.1, 26.5, 34.6, 28.7, 28.9, 33.2, 34.7, 31.3 (2×), 31.4 (2×), 35.1, 32.3 (2×), 33.3, 33.5, 37.3, 29.8 (3×), 31.7, 25.1, 27.8, 29.3, 29, 27.1, 26.4 (2×), 33, 25.2, 36, 35.9, 28.6, 32 (2×), 30.2, 34.8, 30.5, 34.2 (2×), 36.5, 27.6, 27.5, 31.5, 31.2, 30.9, 34%"
